{
  "source": "PubChem BioAssay (NCATS)",
  "note": "Inconclusive results, whose numbers are uncertain, are shown with a selection of clear calls. Potencies beside an inconclusive call are fits to weak or partial responses and may not hold up. The source made the active and inactive calls. Calls come from the whole dose curve; as a rule, active = well fitted cell-killing curve with a large enough effect; inconclusive = small, poorly fitted or top-dose-only effect, or effect the other way; inactive = flat fitted curve, though single readings scatter. Potency is the fitted concentration of half-maximal effect; tags give direction and shape of the fitted curve.",
  "data": [
    {"test": "qHTS assay for cell viability of the p53RE-bla HCT-116 cell line (AID 743292); note: nearly all actives have a fitted effect of over 55% in size", "conditions": "p53RE-bla HCT-116 viability, ATP luminescence, 16 h; series mostly up to 95 µM", "procedure,_shortened": "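Compound-exposed HCT-116 (p53RE-bla) cells, 4,000 per well, were kept 16 h at 37 C following a 5 h preincubation. Cell number was estimated from total ATP by CellTiter-Glo luminescence read after 30 min at room temperature.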", "values": [
      {"smiles": "CC(C)CCCCCCc1ccc(OCCOCCO)cc1", "Potency": "inconclusive: 70.8 µM [cytotoxic, single point]"},
      {"smiles": "CCCCCCCCCC[N+](C)(C)Cc1ccccc1", "Potency": "inconclusive: 35.5 µM [cytotoxic, partial curve, poor fit]"},
      {"smiles": "Cc1cc(Cc2cc(C)cc(C(C)(C)C)c2O)c(O)c(C(C)(C)C)c1", "Potency": "active: 44.7 µM"}
    ]}
  ]
}
